Activation data for 54 molecules are collected here from PubChem BioAssay AID1346428 (National Center for Advancing Translational Sciences (NCATS), 2018).

SMILES strings stand for the structures. Among all 48,000 compounds or so, about 1,200 (2.5%) were called active. About 2% were inconclusive and are not listed.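 How the source made its calls: active means activation of at least 60% and not above a set upper limit (about 1 call in 100 departs from these limits); inconclusive means activation of 40% to 60%, or above that upper limit; inactive means activation under 40%.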 The list shows a part of the results.

The test has as its target Probable G-protein coupled receptor 32 (Homo sapiens) (UniProt O75388). As to the kind of experiment: qHTS for Agonists of Human Resolvin D1 Receptor DRV1. Further: 0% is about no effect. Conditions: CHO-K1 GPR32 beta-arrestin PathHunter luminescence, 90 min; at 76.9 µM; hits give high values; zero percent set by DMSO-only wells. Summed up: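 Cells are plated overnight, treated with compounds in DMSO for 90 minutes at 37 °C, and developed with PathHunter detection reagent for 1 hour before luminescence is read; signal reflects beta-arrestin binding to GPR32 in engineered CHO-K1 cells.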
UniProt O75388, sequence (O75388 whole entry, looked up): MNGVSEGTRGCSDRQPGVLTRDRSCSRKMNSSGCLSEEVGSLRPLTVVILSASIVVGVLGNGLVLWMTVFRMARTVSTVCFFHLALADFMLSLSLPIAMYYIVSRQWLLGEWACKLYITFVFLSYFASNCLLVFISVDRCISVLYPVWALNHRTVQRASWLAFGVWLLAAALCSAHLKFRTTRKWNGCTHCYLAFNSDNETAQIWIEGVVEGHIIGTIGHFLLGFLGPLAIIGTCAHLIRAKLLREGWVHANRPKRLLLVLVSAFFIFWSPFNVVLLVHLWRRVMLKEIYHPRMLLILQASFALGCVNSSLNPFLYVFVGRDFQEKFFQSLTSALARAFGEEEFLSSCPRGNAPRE
In general terms: Quantitative high-throughput screening tests each substance at several concentrations.
With `CCOc1ccc(NC(=O)CSc2oc(-c3ccco3)nc2S(=O)(=O)c2ccc(C)cc2)cc1`, the activation was inactive: -4.69%.

For the molecule `COc1ccc(C)c2sc(NC(=O)c3ccc(S(=O)(=O)N4CCCCC4)cc3)nc12`, the activation was inactive: 3.9%.

For the molecule `CC(C)CCNC(=O)CN1C(=O)CCn2nc(-c3cn(C)c4ccccc34)cc21`, the activation is inactive: -12.2%.

In the case of `COc1ccc(N2CC(NC(=O)COc3ccccc3F)CC2=O)cc1OC` (centres undefined), the activation was inactive: 7.58%.

For `CCOc1ccc(S(=O)(=O)NCCc2csc(-c3ccc(Cl)cc3)n2)cc1`, the activation was active: 69.2%.

With `Cc1nc(S(=O)(=O)N2CCN(c3ccc(Cl)cc3)CC2)cn1C`, the activation was inactive: 10.6%.

With `Cc1nnc(SCc2cc(=O)c3ccccc3[nH]2)s1`, the activation is inactive: 31.3%.

As to `CCCN1CCN(CCCNC(=O)c2cc3c(Cl)nc4ccccc4c3s2)CC1`, the activation is inactive: 38.4%.

Regarding `CCCOc1ccc(NC(=O)CC2C(=O)N(c3ccc(C)cc3)C(=O)N2C(C)C)cc1` (centres undefined), the activation is inactive: -12.9%.

Turning to `CCCOc1ccc(/C=C/C(=O)Nc2sc(C)c(C)c2C(=O)OCC)cc1OC`, the activation is inactive: -11.5%.

Take `CCOc1ccc(CCNC(=O)c2ccc(-c3nc(CSc4ccc(C)cc4)c(C)o3)cc2)cc1`: the activation is inactive: -7.92%.

`COC(=O)c1c(NC(=O)c2cc(=O)c3c(C)cc(C)cc3o2)sc2c1CCCC2`: the activation is inactive: 21.7%.

Take `Cc1ccc(-n2ncc3c(N4CCN(c5ccccc5)CC4)ncnc32)cc1C`: the activation was inactive: 6.17%.

In the case of `Cc1cccc(NC(=O)CN(c2ccc(C(C)C)cc2)S(=O)(=O)c2c(C)nn(C)c2C)c1C`, the activation was inactive: -13.1%.

`CCOC(=O)C1CCN(S(=O)(=O)c2cc(-c3onc(C)c3C)ccc2C)CC1`: the activation is inactive: -2.6%.

`COCCn1c(C)cc(O)c(C(c2ccccc2)N2CCC(C)CC2)c1=O` (centres undefined): the activation is inactive: -6.21%.

In the case of `CC(=O)N1CCCc2cc(S(=O)(=O)N3CCC(C(=O)N(Cc4ccccc4)C(C)C)CC3)ccc21`, the activation was inactive: 6.57%.

As to `O=C(c1c2c(nc3ccccc13)C(=O)N(C1CCCCC1)C2)N1CCN(c2ccc(F)cc2)CC1`, the activation was inactive: 13.6%.

On to `CCOC(=O)N1CCN(C(=O)c2ccc3c(c2)N(Cc2ccccc2F)C(=O)c2ccccc2S3=O)CC1` (centres undefined), for which the activation was inactive: -3.74%.

Regarding `CCc1ccccc1Nc1cc(C(=O)NCc2ccc(C)cc2)c2ccccc2n1`, the activation is inactive: -21.2%.

Consider `COc1ccc(N2C(=O)CSC23C(=O)N(C)c2ccccc23)cc1Cl` (centres undefined), for which the activation is inactive: 6.39%.

Take `OC[C@@H](O)[C@@H](O[C@@H]1O[C@H](CO)[C@H](O)[C@H](O)[C@H]1O)[C@H](O)[C@@H](O)CO`: the activation was inactive: -8.49%.

Turning to `CCOc1ccc(NC(=O)c2cc3sc(Cl)cc3n2CC)cc1`, the activation was inactive: -5.62%.

For the molecule `COc1ccc(C)cc1Nc1nc2c(S(=O)(=O)c3cccc(Cl)c3)nnn2c2ccsc12`, the activation is inactive: 1.87%.

On to `Cc1ccc(S(=O)(=O)c2cn(Cc3cccc(F)c3)c3cc(N4CCCC4)c(F)cc3c2=O)cc1`, for which the activation was inactive: -14.3%.

Take `CCOC(=O)c1c(S(=O)(=O)N2CCCC(C(=O)Nc3ccc(OCC)cc3)C2)c(C)n(C)c1C` (centres undefined): the activation is inactive: -6.33%.

As to `Cc1ccc(-c2cc(NC(=O)c3ccccc3Cl)on2)cc1`, the activation was inactive: 12.6%.

For the molecule `CCCOc1ccccc1-c1nc(SCC(=O)c2ccccc2)n[nH]1`, the activation was inactive: -0.831%.

In the case of `c1ccc2[nH]c(-c3cscn3)nc2c1`, the activation is inactive: -13.8%.

For the molecule `CCOc1cc(CNS(=O)(=O)c2ccc3c(c2)CC(=O)N3C)cc(OCC)c1OCC`, the activation was inactive: -10.5%.

Turning to `O=C(Nc1ccc(C(=O)N2CCN(c3ccc(F)cc3)CC2)cc1)c1nsc2ccccc12`, the activation is inactive: -19.4%.

With `CCN1CCN(CCCNC(=O)c2ccc3nc(Cc4ccc(OC)cc4)oc3c2)CC1`, the activation is inactive: 6.38%.

On to `COc1ccc(Br)cc1C(=O)Nc1ccc2oc(-c3cccnc3)nc2c1`, for which the activation was inactive: 6.06%.

For `CC(=O)Nc1ccc(S(=O)(=O)N2CCC(c3ccncc3)CC2)cc1`, the activation is inactive: -10.5%.

For the molecule `CCCCN(CCCC)c1ncnc2c1cnn2-c1cccc(C)c1`, the activation was inactive: 19.8%.

In the case of `Cc1cc(C)n(C(C)CC(=O)NCc2ccccc2C)n1` (centres undefined), the activation was inactive: -3.93%.

For the molecule `CCCN(CCC)CCNC(=O)Cn1cnc2sc(C)c(S(=O)(=O)N3CCC(C)CC3)c2c1=O`, the activation was inactive: -1.69%.

As to `COc1ccccc1CNC(=O)CN1C(=O)CCc2cc(S(=O)(=O)N3CCCCC3)ccc21`, the activation is inactive: 21.4%.

With `COc1ccc(C(=O)NCCn2cc(SCc3cccc(F)c3)c3ccccc32)cc1OC`, the activation was inactive: 36.4%.

Turning to `O=C(CSc1nc(-c2cccs2)nc2cc(=O)[nH]n12)Nc1ccccc1`, the activation is inactive: -45%.

For the molecule `COc1ccc(CCNC(=O)Cn2cc(C(=O)c3ccc(Cl)cc3)c(=O)c3ccc(C)nc32)cc1OC`, the activation was inactive: 3.42%.

With `CCOC(=O)C1CCN(c2nc3c(S(=O)(=O)c4ccc(Br)cc4)nnn3c3ccsc23)CC1`, the activation is inactive: -23.5%.

On to `FC(F)(F)c1cccc(-n2cc(-c3ccccc3)c3c(N4CCCCC4)ncnc32)c1`, for which the activation was inactive: -9.75%.

`CCc1ccc(NC(=O)CC(c2cc(OC)c(OC)c(OC)c2)N2Cc3ccccc3C2=O)cc1` (centres undefined): the activation was inactive: 1.72%.

Turning to `CCOC(=O)c1cccc(NC(=O)Cn2nc3c(cc2=O)CCCC3)c1`, the activation is inactive: -9.28%.

Turning to `Cn1c(=O)n(C)c2cc(NS(=O)(=O)c3ccc(F)cc3)c(NCc3ccccc3)cc21`, the activation is inactive: 28.5%.

Consider `COc1ccc(S(=O)(=O)N(CCc2ccccc2)CC(=O)NCc2ccccc2)cc1`, for which the activation was inactive: -2.63%.

For the molecule `CC(=O)C(C)=O`, the activation was inactive: -2.02%.

Consider `COCCN1C(=O)c2oc3cc(C)cc(C)c3c(=O)c2C1c1cccc(O)c1` (centres undefined), for which the activation was inactive: -3.18%.

Regarding `COc1ccc(CNC(=O)c2cc3c(-c4ccc(Cl)cc4)nn(C)c3s2)cc1`, the activation is inactive: -17%.

For `Cc1ccc(N2CC(C(=O)NCCS(=O)(=O)N3CCN(c4ccccc4)CC3)CC2=O)cc1` (centres undefined), the activation was inactive: -8.83%.

As to `Cc1c(C(=O)NC(C)c2ccccc2)sc2ncnc(N(C)C3CCCCC3)c12` (centres undefined), the activation is inactive: -40.3%.

With `Cc1ccc(-c2c(CN3CCN(c4cc(C)ccc4C)CC3)csc2C)cc1`, the activation is inactive: -30.4%.

In the case of `O=S(=O)(Nc1ccc(-c2ccc(N3CCCCC3)nn2)cc1)c1ccc(OC(F)(F)F)cc1`, the activation is inactive: -3.43%.
